Measured values: paper PMC10319797, “Fully co-factor-free ClearTau platform produces seeding-competent Tau fibrils for reconstructing pathological Tau aggregates” (Nature Communications, 2023)

Biological target: the molecule itself
Assay: co-sedimentation; ClearTau reaction: Tau monomer alone in heparin-coated tubes (heparin covalently immobilized, none in solution), 37 °C with orbital shaking, 24-48 h; ultracentrifuged at 100'000 g for 1 h at 4 °C into supernatant and pellet, SDS-PAGE; fibrils also followed by ThS fluorescence, CD and EM; monomer to fibrils

B1: Tau 3R1N (natural protein)
chain: not shown
notes: source: E. coli BL21, purified (protocol similar to 4R2N)
B1: binds.
